Results taken from the supplement of paper PMC3334620.
Whole data set: some 33,000 sequences, median “E-score (-0.5 to 0.5)” near -0.036, cut for the highest 2% near 0.37. The list shows a part of the results.

What follows are sequences tested against T1, Yer064c (UniProt P40041) (assay: PBM E-score (8-mer binding enrichment) (E-score (-0.5 to 0.5)); higher = stronger / more preferred TF binding; most listed sequences are background and not binding sites). Settings: protein concentration: 200 nM; construct: GST-full length.
T1 sequence: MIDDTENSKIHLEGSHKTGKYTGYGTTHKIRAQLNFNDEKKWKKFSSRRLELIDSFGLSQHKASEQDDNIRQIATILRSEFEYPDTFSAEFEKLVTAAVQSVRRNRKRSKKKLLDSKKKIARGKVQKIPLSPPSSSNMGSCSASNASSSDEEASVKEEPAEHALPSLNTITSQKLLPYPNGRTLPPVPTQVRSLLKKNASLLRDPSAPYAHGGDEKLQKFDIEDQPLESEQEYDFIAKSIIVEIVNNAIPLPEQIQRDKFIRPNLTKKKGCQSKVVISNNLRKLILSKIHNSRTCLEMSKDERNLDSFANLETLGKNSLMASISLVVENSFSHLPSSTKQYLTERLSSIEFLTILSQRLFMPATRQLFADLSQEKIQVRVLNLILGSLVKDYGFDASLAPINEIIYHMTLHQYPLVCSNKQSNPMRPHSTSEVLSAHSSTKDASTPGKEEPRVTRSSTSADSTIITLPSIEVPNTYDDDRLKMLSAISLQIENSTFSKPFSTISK
Outline: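 Full-length yeast transcription factors or their DNA-binding domains, GST-tagged and expressed with PURExpress, were applied at about 100-200 nM to universal all-10-mer Agilent arrays. These arrays had been made double-stranded by primer extension on fresh or once-stripped slides. Detection used fluorescent anti-GST, normalisation used masliner, and E-scores for ungapped eight-base words pooled with reverse complements came from the Universal PBM Analysis Suite.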

Row | Sequence | PBM E-score
1 | ACTCATCT | 0.401
2 | AATCCAGC | -0.149
3 | CCTATGTC | -0.165
4 | CCACACTA | -0.0276
5 | AGCCCCAA | -0.0623
6 | TCATGCAA | 0.177
7 | CTGAATAC | -0.0534
8 | AAGTCGAT | 0.0107
9 | CAGAAAAG | 0.106
10 | AAATCTCC | -0.2
11 | CAGATAGG | -0.0964
12 | AGCGATAC | -0.106
13 | AACTCACT | 0.148
14 | TCCCCGCA | -0.0687
15 | CGGCTAGC | -0.139
16 | AGTCTTGG | 0.315
17 | CATTGGCA | 0.0966
18 | GGCCAAAC | -0.168
19 | CACATCGA | -0.0301
20 | AAGAACAT | -0.124
21 | CAAAGTTG | 0.0753
22 | GTCCGAGA | 0.0792
23 | AAGGGGAT | -0.204
24 | ATATTCGC | -0.075
25 | AATAGTCG | 0.346

Row | Sequence | PBM E-score
26 | GCGAGCCC | -0.21
27 | CGGTAACA | 0.0284
28 | CCTAGATA | -0.154
29 | GCCCGTGA | -0.0227
30 | AGAGCCAC | 0.0176
31 | AAGCACTT | -0.04
32 | AAGAGGCG | -0.082
33 | CTGTAGGA | 0.0347
34 | CGTGACCA | -0.00231
35 | GCCTAGCC | -0.215
36 | AGCTCATA | 0.151
37 | AGCATTGA | 0.0639
38 | TTCGTAAA | -0.00227
39 | AGGGAGCA | -0.173
40 | ACACAACT | 0.0203
41 | AGTGCGCG | -0.269
42 | GTGATCAA | 0.215
43 | ATGTTACC | -0.172
44 | CTAATGAG | 0.0791
45 | ATAGCACG | -0.317
46 | CCGCACGA | 0.147
47 | AAGGTATT | -0.0253
48 | CCCATGAC | 0.255
49 | CAATAGTC | 0.409
50 | AAAACGTT | 0.0497

Row | Sequence | PBM E-score
51 | ACCGGATA | 0.0766
52 | CCTCAAGC | -0.0831
53 | GTGGACTA | 0.319
54 | GGCAGGCA | -0.336
55 | CAAATAAA | 0.0306
56 | ACGCGCCT | 0.0183
57 | GTGCGGGA | -0.101
58 | AAGCGGTG | -0.0536
59 | AACGGCTG | -0.0314
60 | AAATTGGC | -0.256
61 | CCATACAC | -0.06
62 | AAGCCACG | -0.192
63 | AGCGCGAG | -0.00436
64 | CTTAAAAG | 0.182
65 | TAATCCGA | 0.205
66 | CGAGATAG | -0.152
67 | AAGTTAGA | -0.0136
68 | ATTCGCAG | -0.0137
69 | ACAAGGAG | 0.132
70 | ACAAGATG | 0.0445
71 | AAGTGCAT | -0.102
72 | ACTATCTG | 0.18
73 | CCCTCCAA | -0.12
74 | AGGCTCAT | 0.0724
75 | ACCAGAAA | 0.0648

Row | Sequence | PBM E-score
76 | ACAGAAAT | -0.108
77 | TCGAAGAA | -0.136
78 | CCCAGTAA | -0.143
79 | ACCTGTAA | -0.0723
80 | CTTTATGC | -0.0254
81 | GCGTTAAC | -0.00287
82 | ACATCGAG | -0.128
83 | TTGTAAAA | 0.0051
84 | CGGGAGGC | -0.19
85 | ATTGGATC | -0.0186
86 | ACTAATCC | 0.208
87 | TGGTACAA | -0.0525
88 | GCCTGCCC | -0.343
89 | TATTATGA | 0.107
90 | CTGAGTTA | 0.185
91 | AACCGCGG | 0.0393
92 | AAGCGCCT | -0.347
93 | GAGGGCCC | -0.331
94 | CACTTTGA | 0.184
95 | TAGGCATA | -0.312
96 | GCATTGGC | -0.167
97 | CGAATTTA | 0.0489
98 | GCAATGTA | -0.213
99 | ACCCCTGC | -0.229
100 | AGCCAACA | -0.135

Row | Sequence | PBM E-score
101 | AGAGCGAT | -0.114
102 | ATCTCAGG | -0.0459
103 | AGGGTGGG | -0.0646
104 | ACGCGTGC | -0.0231
105 | ACCAAAGC | -0.135
106 | ATGATTTG | 0.299
107 | CATGTTAG | 0.116
108 | AGCCGGCA | -0.176
109 | GCACGTCA | -0.137
110 | CCTACAAC | -0.134
111 | ATCACGTA | 0.137
112 | GCCACACC | -0.2
113 | ATTTGTAG | 0.00901
114 | GCGATCAC | -0.0271
115 | AAAAATAT | 0.0883
116 | CCAACCTC | -0.23
117 | GGCTCAAA | 0.213
118 | ACTCGCCC | 0.0905
119 | CTTGGCGA | -0.0294
120 | AAGAGCTA | -0.228
121 | CAAGGATG | -0.014
122 | AGACCAAC | -0.139
123 | GTTGCAAC | -0.034
124 | CTACATAA | 0.0056
125 | CATAGGCC | -0.158

Row | Sequence | PBM E-score
126 | ACTATTAC | 0.111
127 | CCTGGAGC | -0.113
128 | CTAAAGTC | 0.279
129 | TATAACCA | 0.122
130 | TAAGCGAA | -0.0314
131 | AATCTTGC | 0.122
132 | ACATTTGA | 0.157
133 | ACGGCCGG | -0.182
134 | AGCCATTA | 0.252
135 | GTCAGCAA | 0.251
136 | ACCATCGA | -0.0442
137 | ACACGTTC | -0.271
138 | TGACATCA | 0.0345
139 | AAGAAACC | 0.0989
140 | TAATTAGA | -0.0163
141 | AATGCCGG | -0.219
142 | TAACCGTA | -0.0427
143 | GCTATTCA | 0.124
144 | GGACCCAA | -0.149
145 | ATCCAGGG | -0.173
146 | CGTCGCCA | -0.274
147 | CTGCCTAC | -0.0918
148 | AGTCCGGG | 0.0365
149 | GCCAGCTA | -0.118
150 | GGCCGGAC | -0.145

Row | Sequence | PBM E-score
151 | CGGGTGAA | 0.0246
152 | CCCGCGCG | -0.085
153 | GAGAGAAA | -0.02
154 | GACTTTGC | 0.0497
155 | AGTATCTC | 0.165
156 | AAAACATA | 0.0612
157 | GACGGATC | -0.0775
158 | AATACGTG | -0.0157
159 | ATTGATTG | 0.165
160 | ATAAATTG | 0.135
161 | GCTTTAAC | -0.0805
162 | ACGCTATG | -0.064
163 | CTAGGATA | -0.0789
164 | CGTGAACG | -0.187
165 | CCATTCCC | -0.126
166 | CGTTCACC | -0.284
167 | AAAACGTA | -0.00988
168 | AATAACCT | 0.102
169 | AGGCATAC | -0.217
170 | ACATTCAA | 0.0397
171 | GAGTGTCC | -0.0363
172 | CGGAATGC | -0.396
